Measurements: PubChem BioAssay AID686970 (National Center for Advancing Translational Sciences (NCATS), 2013)
The whole screen tested about 360,000 compounds, of which about 6,000 (1.7%) were called active. The shares of active, inactive and inconclusive entries below differ from those in the screen. The call rests on the fitted dose curve; in most records, active means well fitted cell-killing curve with a large enough effect; inconclusive means small, poorly fitted or top-dose-only effect, or effect the other way; inactive means flat fitted curve, though single readings scatter. Potencies of inconclusive entries are left out as doubtful fits.

assay: qHTS for induction of synthetic lethality in tumor cells producing 2HG: qHTS for the HT-1080-NT fibrosarcoma cell line; conditions: HT-1080-NT fibrosarcoma viability, CellTiter-Glo ATP luminescence, 48 h; activity, negative = less viability: at 46.1 µM (top of the series) unless noted;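 further: NT is the 2HG producing partner of a matched IDH1 knockdown line; nearly all actives have a fitted effect of over 55% in size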;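 on activity, negative = less viability: 0% = DMSO-treated cells and -100% = media-only wells without cells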
Procedure, shortened: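 Toxicity toward the 2HG-producing NT line was scored as %Activity, normalised to DMSO and no-cell wells, from CellTiter-Glo luminescence after 48 hours' treatment.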
Potency means the concentration at half of the fitted maximal effect; tags describe the fitted curve by direction and shape.

Row | Structure (SMILES) | activity, negative = less viability | Potency
1 | O=C(OCc1c(-c2ccccc2)ncc2ccccc12)N1CCOCC1 | inactive: 4.45% | 
2 | CC(C)c1ccc(/C=N/NC(=O)c2ccc(-n3cnnn3)cc2)cc1 |  | inconclusive [cytotoxic, partial curve]
3 | Cc1cc(N2CC(C(=O)Nc3nccs3)CC2=O)ccc1C(C)C (stereo not given) | inactive: -0.304% | 
4 | COc1ccc(CCNC(=O)Nc2cc(F)c(F)cc2Cl)cc1OC | inactive: -13.3% | 
5 | O=C(Nc1cccc(O)c1)c1noc2c1CCCCC2 |  | inconclusive [cytotoxic, single point]
6 | COc1cc(OC)c2c(-c3cccc(-c4ccc(OC)c(OC)c4)c3)cc(=O)oc2c1 |  | inconclusive [cytotoxic, full curve, poor fit]
7 | CCOC(=O)C(C)(C)Sc1ncnc2nc[nH]c12 | inactive: 4.57% | 
8 | C=CCOc1cccc(C2C(C(=O)c3cc4ccccc4o3)=C(O)C(=O)N2c2cc(C)on2)c1 (stereo not given) |  | inconclusive [cytotoxic, single point]
9 | CCC(C(=O)NCCCN1CC(C)CC(C)C1)n1nc(C)c2sc3ccccc3c2c1=O (stereo not given) | inactive: -9.48% | 
10 | CCCCC(=O)Nc1nc(-c2ccc(S(=O)(=O)N3CCOCC3)cc2)cs1 |  | inconclusive [cytotoxic, partial curve]
11 | O=C(COc1ccccc1-c1ccccc1)NCc1cccc(Cl)c1 | inactive: -3.64% | 
12 | COc1ccc(-n2nc3c(N4CCC(C(=O)NCc5cccc(C)c5)CC4)nnc(C)c3c2C)cc1 |  | inconclusive [cytotoxic, single point]
13 | CCOC(=O)CCc1nc2ccccc2[nH]1 | inactive: 3.67% | 
14 | CC1(c2ccccc2)O[C@@H]2C[C@H]3[C@@H]4CCC5=CC(=O)C=C[C@]5(C)[C@@]4(F)[C@@H](O)C[C@]3(C)[C@]2(C(=O)CO)O1 (stereo not given in full) | inconclusive: -37% | 
15 | CCn1c(/C=N/c2nc3ccccc3n2C)nc2ccccc21 |  | inconclusive [cytotoxic, single point]
16 | O=S(=O)(Nc1ccc2oc(-c3ccccc3)nc2c1)c1ccccc1 |  | inconclusive [cytotoxic, single point]
17 | Cc1cc2c(cc1C)N(C(=O)CCl)CC(=O)N2 |  | inconclusive [cytotoxic, single point]
18 | C1CC(=NN=C2CCSCC2)CCS1 | inactive: 7.17% | 
19 | OC[C@@H]1CN(Cc2cccnc2)C[C@H](n2cnc3c(NC4CCCC4)ncnc32)O1 |  | inconclusive [rising, single point]
20 | Nc1ccnc(=O)[nH]1 |  | inconclusive [rising, single point]
21 | Cc1cc(CNC(=S)Nc2ccc(Br)cc2Cl)nn1C | inactive: -16.3% | 
22 | Cn1c2ccccc2c2ncn(CCC3=CCCCC3)c(=O)c21 | inactive: -16.8% | 
23 | CCOc1ccc(N=Nc2ccc(O)c3ncccc23)cc1 |  | inconclusive [cytotoxic, full curve]
24 | c1ccc2c(-c3cncc4ccccc34)cncc2c1 |  | inconclusive [cytotoxic, partial curve]

Row | Structure (SMILES) | activity, negative = less viability | Potency
25 | COc1ccccc1/C=C/C(=O)N1CCc2cc(OC)c(OC)cc2C1C (stereo not given) |  | inconclusive [cytotoxic, partial curve]
26 | O=C(COc1ccc(C(=O)c2ccccc2)cc1)NC1CCCCCC1 | inactive: 4.46% | 
27 | COc1cccc(NC(=O)CCCN2C(=O)C3CC=CCC3C2=O)c1 (stereo not given) |  | inconclusive [cytotoxic, full curve]
28 | CCOC(=O)c1ccc(NC(=S)NNC(=O)C2(C)CC2(Cl)Cl)cc1 (stereo not given) |  | inconclusive [cytotoxic, single point]
29 | Clc1ccccc1Cn1nnc2c(Nc3ccccc3)ncnc21 | inactive: 1.42% [at 9.24 µM] | 
30 | CCOc1ccc(CCN2C(=S)N([C@@H](CC(C)C)CN3CCC[C@@H]3CN3C(=S)NC[C@@H]3Cc3ccccc3)C[C@@H]2Cc2ccc(O)cc2)cc1 |  | inconclusive [cytotoxic, partial curve]
31 | COc1ccc(C(=O)NC2=NCCS2)cc1S(=O)(=O)N1CCOCC1 | inactive: -0.789% | 
32 | O=[N+]([O-])c1ccc(-c2cnc(SC(c3ccccc3)c3ccccc3)[nH]2)cc1 |  | active: 23.1 µM
33 | CC(=O)C1=C(C)NC(SCC(=O)c2ccc(Cl)cc2)=C(C#N)C1CC(C)C (stereo not given) | inactive: 20.6% | 
34 | COc1ccc(-c2oc3c(c2C#CC(C)(C)O)C(OC)CCC3)cc1 (stereo not given) |  | inconclusive [cytotoxic, single point]
35 | Cc1cccc(C)c1Cn1c(C)c(C(=O)NCc2cccc(Cl)c2)sc1=O | inactive: -9.39% | 
36 | COc1ccc(-c2ccc([C@H]3[C@@H]4C=CCC[C@@]4(C)C(=O)N3Cc3ccccc3)c(F)c2)cc1 |  | inconclusive [cytotoxic, single point]
37 | COc1cc(/C=C/C(=O)Nc2ccc(OC)c(S(=O)(=O)N3CCOCC3)c2)ccc1OCC#N | inconclusive: -18.3% [cytotoxic] | 
38 | NC1=NC(c2ccc(Cl)cc2)C(C(=O)c2ccccc2)N1 (stereo not given) |  | active: 18.4 µM
39 | O=C(NC1CCCC1)c1cc(-c2cccs2)on1 |  | inconclusive [cytotoxic, single point]
40 | O=C1N/C(=N/c2ccccn2)SC1Cc1ccccc1 (stereo not given) |  | inconclusive [cytotoxic, full curve]
41 | CCN1CCN(CCNC(=O)c2ccc(CS(=O)c3ccc(Br)cc3)o2)CC1 (stereo not given) | inactive: -0.349% | 
42 | CC(=O)c1cccc(Nc2nc(-c3sc(N)nc3C)cs2)c1 | inactive: -2.68% | 
43 | O=C(Nc1ccccc1)N1CCc2c([nH]c3ccccc23)C1C(F)(F)F (stereo not given) |  | inconclusive [cytotoxic, partial curve, poor fit]
44 | Cc1cc(N/N=C/c2cccc(Cl)c2)nc(-n2nc(C)cc2C)n1 |  | inconclusive [cytotoxic, partial curve]
45 | Cc1ccccc1C(=O)/C=C1/c2ccccc2CC(C)(C)N1C |  | inconclusive [cytotoxic, single point]
46 | O=C(c1cc(-c2ccc(O)cc2)on1)N1CCN(c2ccc(F)cc2)CC1 |  | inconclusive [cytotoxic, single point]
47 | Cc1cc(C)c2nc(NNC(=O)c3cc(-c4cccs4)nc4ccccc34)sc2c1 |  | inconclusive [cytotoxic, partial curve]
48 | COc1ccc(-c2nc3cc(C)ccn3c2NC(=O)c2ccccc2OC)cc1 |  | inconclusive [cytotoxic, single point]

Row | Structure (SMILES) | activity, negative = less viability | Potency
49 | Cc1ccc(NC(=O)Cn2nnc(C(=O)NCc3ccco3)c2N)c(C)c1 |  | active: 20.6 µM
50 | COc1ccc(C(C[N+](=O)[O-])c2c(C)[nH]n(-c3ccccc3)c2=O)cc1 (stereo not given) | inconclusive: -16.5% [cytotoxic] | 
51 | COc1ccc(C2c3c(ncn(CCCO)c3=N)Oc3ccc4ccccc4c32)cc1OC (stereo not given) |  | inconclusive [cytotoxic, partial curve]
52 | CSC(SC)=C(C#N)C(=O)c1ccccc1 |  | inconclusive [cytotoxic, single point]
53 | CCCOc1ccc(C(=O)C(CN2CCOCC2)c2ccccc2)cc1 (stereo not given) |  | active: 18.4 µM
54 | CC12CCC(O)CC1=CCC1C2CCC2(C)c3[nH]ncc3CC12 (stereo not given) | inactive: -24.7% | 
55 | COC(=O)c1ccc(Sc2nnnn2-c2ccccc2)c([N+](=O)[O-])c1 |  | inconclusive [cytotoxic, single point]
56 | Nc1[nH]n(-c2ccccc2)c(=O)c1N=Nc1ccc2ncsc2c1 |  | inconclusive [cytotoxic, single point]
57 | CCC1C(c2ccccc2)N(C)C(c2ccccc2)CC1(O)c1ccccc1 (stereo not given) |  | inconclusive [cytotoxic, single point]
58 | COc1ccc(NC(=O)c2sccc2SCc2cccc(C(F)(F)F)c2)cc1 |  | inconclusive [cytotoxic, single point]
59 | COc1cccc(/C=C2\SC(=O)N(CCC(=O)NC3CCS(=O)(=O)C3)C2=O)c1 (stereo not given) | inconclusive: -0.13% [cytotoxic] | 
60 | Cn1c(=O)n(C)c2cc(S(=O)(=O)N3CCCc4ccccc43)ccc21 |  | inconclusive [cytotoxic, single point]
61 | Cc1ccc(C)c(S(=O)(=O)Nc2ccc3sc(C)nc3c2)c1 |  | inconclusive [cytotoxic, single point]
62 | O=C(OC(c1ccc(NS(=O)(=O)c2ccccc2)cc1)(C(F)(F)F)C(F)(F)F)c1ccccc1 |  | inconclusive [cytotoxic, single point]
63 | CC1=CC(C)(C)N(S(=O)(=O)c2ccc(C)cc2)c2ccc(C)cc21 |  | active: 3.16 µM
64 | CC(C)(C)N(NC(=O)Nc1ccc(Cl)c(Cl)c1)C(=O)c1ccccc1 |  | active: 20.6 µM
65 | O=C(N/N=C/c1ccccc1O)c1ccncc1 |  | inconclusive [cytotoxic, full curve]
66 | Cc1cccc2[nH]c3c(N4CCC5(CC4)OCCO5)ncnc3c12 |  | inconclusive [cytotoxic, single point]
67 | CC(=O)Nc1cc(-c2ccc(N3CCN(C)CC3)cc2)cn2c(-c3ccccc3)cnc12 |  | inconclusive [cytotoxic, single point]
68 | Cc1csc2c(=O)sc(NC(=O)c3cccs3)nc12 |  | inconclusive [cytotoxic, single point]
69 | Cc1sc2ncn(/N=C/c3ccco3)c(=O)c2c1C |  | inconclusive [rising, partial curve, poor fit]
70 | Cn1c(=O)c2[nH]c(-c3ccc(S(=O)(=O)O)cc3)nc2n(C)c1=O |  | inconclusive [rising, single point]
